The whole screen tested about 48,000 compounds, of which about 450 (0.94%) were called active. Inconclusive results (about 19%) are left out. Calls come from the whole dose curve; as a rule, active = well fitted inhibition curve with a large enough effect; inconclusive = small, poorly fitted or top-dose-only effect; inactive = no such curve, though single readings can be large or run the other way. Some of the results follow.
Experiment: Primary qHTS for Identification of Small Molecule Inhibitors of Huntingtin Promoter Activity; note: nearly all actives have a fitted effect of over 50% in size
Conditions: HEK293 HTT promoter firefly luciferase reporter (activity 0% = vehicle and -100% = no light), 24 h; series mostly up to 57.5 µM; activity change, negative = inhibition: at the top concentration
How it was run: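 HEK293 Fluc reporter, 2,500 cells/well, 24 h pre-culture; cpds up to 57.5 uM final, 24 h 37 degrees C; Dual-Glo, 10 min RT; normalized vehicle = 0%, zero RLU = -100%.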

Activity change, negative = inhibition, inactive:
Cc1ccc(C)c(CN2CCC(CNC(=O)C(CC(C)C)N3Cc4ccccc4C3=O)CC2)c1 (stereo not drawn) -18.1%, COCCn1c(CNC(=O)c2ccccc2C)nc2cccnc21 -0.603%, COc1ccc(NC(=O)Nc2cccc(-c3noc(C)n3)c2)cc1 -23.2%, COc1cccc(-n2ccnc2SCC(=O)Nc2cccc3ccccc23)c1 -28.9%, COc1ccc(-n2c(CC3C(=O)Nc4ccc(C)cc43)nc3ccccc3c2=O)cc1 (stereo not drawn) -5.38%, O=C(NCc1ccccc1Cl)c1ccc2c(c1)ncn2-c1cccc(F)c1 -0.32%, O=c1c2c3c(sc2nnn1CCCCOc1ccc(Cl)cc1)CCCC3 7.33%, COc1cc(-c2noc(-c3cc4cccc(C)c4oc3=O)n2)cc(OC)c1OC -7.13%, CCOc1ccccc1-n1c(N)c(C(=O)OC)c2nc3ccccc3nc21 -18.2%, COc1ccc(-c2nsc(NC(=O)c3oc4ccc(Cl)cc4c3C)n2)cc1 -3.16%, O=C(Nc1ccc(F)cc1)c1nc(SCc2ccccc2F)ncc1Cl -12.8%, N#C/C(=C/c1ccc(O)cc1)c1nc(-c2ccc(-c3ccccc3)cc2)cs1 3.87%, Cc1ccc(OCCn2c(CNc3ccccc3C)nc3ccccc32)cc1 16.5%, Cc1cc(NC(=O)c2cnn(-c3ccccc3)c2-n2cccc2)ccc1Br -5.62%, COc1cccc(-c2nc3c(C#N)c[nH]n3c2NC2CCCCC2)c1 9.53%, COc1cccc(CNC(=O)CN(c2ccc(C)cc2)S(=O)(=O)N(C)C)c1OC -5.34%, CCc1cccc(NC(=O)Cn2c(=O)n(CC3CCC(C(=O)NC)CC3)c(=O)c3sccc32)c1 (stereo not drawn) -20.5%, N#CC1=C(N)N(c2ccc(Cl)cc2)C2=C(C(=O)CCC2)C1c1cc(CN2CCOCC2)cs1 (stereo not drawn) 0.494%, O=C(NC1CCCCC1)c1ccc2c(c1)N(Cc1ccc(F)cc1)C(=O)c1ccccc1S2(=O)=O -16.9%, COc1cc(C(=O)Nc2cc(C)c(O)c(-c3nc4cc(Cl)ccc4o3)c2)cc(OC)c1OC -10.8%, CCN(CC)C(=O)c1sc2c(c1C)c(=O)n(-c1ccccc1)c(=O)n2CC(=O)N(CC)c1cccc(C)c1 0%, Cc1cn2c(=O)cc(COC(=O)COc3ccc(C)c(C)c3)nc2s1 -7.37%, CCCOc1ccc(C(=O)N(Cc2ccc(Cl)cc2)Cc2ccco2)cc1 -28.7%, C=C1C(=CC=C2CCC[C@]3(C)[C@@H]([C@H](C)CCCC(C)(C)O)CC[C@@H]23)C[C@@H](O)C[C@@H]1O 18.7%, CC(CCc1ccc2c(c1)OCO2)NN (stereo not drawn) 5.9%, Cc1ccc(CNC(=O)c2ccc3c(c2)NC(=O)C(CS(=O)(=O)Cc2cccc(C)c2)N3)cc1 (stereo not drawn) -19.9%, COc1cc(NC(=O)CCS(=O)(=O)c2ccc(Br)cc2)cc(OC)c1 -15.5%, CN(C(=O)CSc1nncn2c1cc1occc12)c1ccccc1 4.66%, CCCCN(C)C(=O)CN1C(=O)c2cccnc2Oc2ccc(Cl)cc21 3.55%, CC(C)c1ccc(-c2noc(SCC(=O)N3CCN(c4ccccc4F)CC3)n2)cc1 -1.73%, O=C(NCc1cccs1)c1ccc2c(c1)sc1nc(-c3ccccc3)cn12 20.9%, COc1ccc(Cn2ccn(CC(=O)Nc3cc(C)ccc3C)c(=O)c2=O)cc1 -13.4%, Cc1ccc(NC(=O)Cn2c(=O)ccc3cc(S(=O)(=O)N4CCCC4)ccc32)cc1C -18.8%, Cc1cc2nn(-c3ccc(F)cc3)nc2cc1NC(=O)c1ccc(C(C)(C)C)cc1 -1.91%, COc1cc(CN(C(=O)c2ccccc2)c2ccccn2)cc(OC)c1OC -13.8%, COc1ccc(-c2cn3cccnc3n2)cc1NC(=O)c1ccccc1C(F)(F)F -0.732%, COc1ccc2c(c1)c(=O)c(C(=O)c1ccc(F)cc1)cn2CC(=O)Nc1ccc2c(c1)OCCO2 -22.9%, COc1ccc(-c2oc3ncn4nc(-c5ccccc5OC)nc4c3c2-c2ccc(OC)cc2)cc1 -18.6%, CCOc1ccc(-n2c(-c3ccc(Br)cc3)cc3c2CC(C)(C)CC3=O)cc1 -8.55%, CCOC(=O)c1cc(-c2ccc(F)cc2)n(CCC(=O)Nc2nc3cc(C)c(C)cc3s2)c1C -6.16%, Cc1nnc2c3ccccc3nc(Nc3ccc(F)cc3Cl)n12 13.4%, Cc1ccc2c(CC(=O)Nc3nnc(C(C)C)s3)coc2c1C -1.26%, COc1cc(OC)cc(-n2c(=O)c3sccc3n(Cc3cc(=O)n4c(C)cccc4n3)c2=O)c1 -7.44%, OCCN1CCN(c2ncnc3c2cnn3-c2cccc(Cl)c2)CC1 19.6%, Cc1ccc(Cl)cc1NC(=O)Cn1nnc2sc3c(c2c1=O)CCC(C(C)(C)C)C3 (stereo not drawn) -27.2%, COc1ccc(CCNc2ncnc3c2cnn3-c2ccc(F)cc2)cc1 -6.45%, Brc1ccc(CN2CCc3nc(Nc4ccccc4)ncc3C2)s1 -23.5%, COc1ccc(OC)c(CNC(=O)c2cc3c(=O)oc4ccc(C)cc4c3s2)c1 -3.08%, COc1ccc(N(Cc2cc3cc(OC)ccc3[nH]c2=O)C(=O)c2cccc(Cl)c2)cc1 1.28%, Cc1ncc(COP(=O)(O)O)c(C=O)c1O 11.9%, CCOc1ccc(C(=O)NCc2nnnn2-c2ccc(C)c(C)c2)cc1OCC 0.876%, Cc1cc(C)c(NC(=O)CCN2C(=O)c3ccccc3Sc3ncccc32)c(C)c1 -11.1%, Cc1nc2cc(C(=O)NCCC3=CCCCC3)ccc2n1-c1ccc(Br)cc1 -4.96%, Cc1ccc(-n2c(=O)c3ccc(C(=O)NCc4ccccc4Cl)cc3n(CC(=O)Nc3cccc(Cl)c3)c2=O)cc1 -11.6%, CCc1nn(CC(=O)NCC(C)c2ccccc2)c(=O)c2cc3occc3n12 (stereo not drawn) 1.38%, COC(=O)c1cc2c(cc1NC(=O)c1cnn(-c3ccccc3)c1-n1cccc1)OCO2 10.8%, CCOC(=O)CNC(=O)CSc1cn(CC(=O)N2CCCCCC2)c2ccccc12 -2.52%, CCCCCNC(=O)c1ccc2c(c1)ncn2-c1cccc(C)c1 -23.8%, O=C1COc2ccc(-c3cc(-c4ccc(Cl)cc4)c4c(n3)-c3ccccc3OC4)cc2N1 -11.9%, Cc1cccc(C(=O)Nc2nnc(S(=O)(=O)N(C)Cc3ccc(Cl)cc3)s2)c1 -17.2%, COc1cccc(C2CC(=O)Nc3cc(OC)c(OC)c(OC)c32)c1OC(C)C (stereo not drawn) 9.93%, Cc1cccc(Cn2c(=O)n(CC3CCC(C(=O)NC(C)C)CC3)c(=O)c3sccc32)c1 (stereo not drawn) -7.59%, CSc1ccc(CCNC(=O)C2=C(C)C(=O)OC23CCCCC3)cc1 -16.6%, CCC1NC(=O)c2cc(S(N)(=O)=O)c(Cl)cc2N1 (stereo not drawn) 4.57%, COc1ccccc1CN1CCC(CNS(=O)(=O)c2cc(-c3onc(C)c3C)ccc2OC)CC1 -13.4%, Cc1nn(-c2ccccc2)c(OC(=O)c2cccc(Br)c2)c1S(=O)(=O)c1ccccc1 -17.7%, COC(=O)c1ccc(OCC2c3cc(OC)c(OC)cc3CCN2C(=O)c2ccccc2C)cc1 (stereo not drawn) -27.8%, CC(=O)Oc1ccc(C2(c3ccc(OC(C)=O)cc3)C(=O)Nc3ccccc32)cc1 -14.4%, Cc1ccc(-c2nnc(Nc3ccc(Br)cc3)c3ccccc23)cc1S(=O)(=O)NCC1CCCO1 (stereo not drawn) -24.8%, Cc1nc(N2CCCC2)c2c(C(=O)N3CCN(c4ccc(F)cc4)CC3)c(C)oc2n1 -13%, Cc1cc(C)cc(NC(=O)c2cc(C)nc3c2c(C)nn3-c2ccccc2)c1 -7.84%, CCOc1ccc(C2CC(=O)NC(NC(=O)c3ccc(C)cc3)=N2)cc1 (stereo not drawn) 31.8%, COc1ccc(NC(=O)Cn2c(=O)n(CCC(C)C)c(=O)c3cccnc32)cc1Cl -19.8%, COc1cccc(-c2nc(SCC(=O)NCC3CCCO3)c(-c3ccc(C)cc3)[nH]2)c1 (stereo not drawn) -19.1%, CCOc1ccc(NC(=O)c2cc3c(C)nn(-c4ccccc4)c3s2)cc1 -29.2%, Cc1ccc(OCC(=O)N(Cc2ccc(Cl)cc2)Cc2ccco2)cc1C -22.8%, CC(C)NC(=O)C1CCC(Cn2c(=O)c3sccc3n(CC(=O)N3CCCC3)c2=O)CC1 (stereo not drawn) 7.42%, COc1ccc(NC(=O)c2ccc3c(=O)n4nc(Nc5ccccc5C)sc4nc3c2)cc1Cl -7.4%, Cc1ccccc1Nc1cc(C(=O)NC2CCCC2)c2ccccc2n1 0%, CCN(C(=O)c1cc2c(=O)oc3ccccc3c2s1)c1ccc(C)c(C)c1 -13%, Cc1ccc(Cn2c(C(=O)O)c(CNC3CCCCC3)c3ccc(C)cc32)cc1 -12.2%, CCOc1ccccc1NC(=O)Cn1c(=O)n(Cc2nc(C)no2)c(=O)c2ccccc21 -8.59%, Cc1ccccc1C(=O)Nc1ccccc1OCc1cc(=O)n2ccccc2n1 2.14%, Clc1ccccc1CNc1ncnc2c1nc1n2CCCC1 -18.7%, Cc1cccc(NC(=O)C2CCCN(S(=O)(=O)c3ccc4c(c3)oc(=O)n4C)C2)c1C (stereo not drawn) -7.1%, COC(=O)c1c(NC(=O)COc2ccc(C)cc2Br)sc2c1CCCC2 9.59% [at 11.5 µM], Cc1ccc(CNC(=O)CN(C)S(=O)(=O)c2ccc3c(c2)c(=O)n(C)c(=O)n3C)cc1 -0.0878%, CCc1ccccc1NC(=O)CN1C(=O)C2CCCN2c2ccc(S(=O)(=O)N(CC)CC)cc21 (stereo not drawn) -5.55%, CCCCCCCCCCCCCC(=O)OC(C)C 16.8%, CC(O)(P(=O)(O)O)P(=O)(O)O 8.59%, Cc1c(CNC2CCC(C)CC2)c(C(=O)O)c(C)n1Cc1ccc(Cl)cc1 (stereo not drawn) -17.5%, CCOC(=O)C(CC)Sc1ncnc2c1c(-c1ccccc1)cn2-c1ccc(OC)cc1 (stereo not drawn) -19.4%, CCS(=O)(=O)N1CC(=O)N(c2ccc(Cl)cc2C)C(C)(C(=O)NC2CCCCC2)C1 (stereo not drawn) 9.47%, O=C(CSc1nnc(-c2ccccc2)c(-c2ccccc2)n1)NCCc1ccccc1 -5.73%, Cc1ccc(C)c(N(C)C(=O)c2cc3c(s2)-c2ccccc2OC3)c1 -1.83%, CCn1c(=O)c2cc(C(=O)NCc3ccc(F)cc3Cl)sc2c2ccccc21 -4.2%, Cc1cc(C)c(OCC(=O)N(Cc2ccc(N(C)C)cc2)CC2CCCO2)c(C)c1 (stereo not drawn) -29%, Cc1cc(=O)n(CC(=O)N2CCCc3ccccc32)c2c1c(C)nn2-c1cccc(F)c1 -11.7%

Source: PubChem BioAssay AID1508623 (National Center for Advancing Translational Sciences (NCATS), 2021)
